Experimental findings from paper PMC4906230 are described below.

Assay [1] deals with Flag-tagged TRIM25, Q14258. Nature of the assay: co-IP; HEK293 cells transfected with epitope-tagged expression plasmids, lysed 24 h later; lysates immunoprecipitated with anti-Myc or anti-Flag beads and immunoblotted; in Fig. 7f,g with SDC4 overexpressed or knocked down by siRNA. The note with it: remark: other sources report otherwise. On the technique in general: In western blotting, separated proteins are transferred to a membrane and probed.

For assay [2], the target named is T1, Flag-tagged SDC4 (human) (UniProt P31431).
T1 sequence: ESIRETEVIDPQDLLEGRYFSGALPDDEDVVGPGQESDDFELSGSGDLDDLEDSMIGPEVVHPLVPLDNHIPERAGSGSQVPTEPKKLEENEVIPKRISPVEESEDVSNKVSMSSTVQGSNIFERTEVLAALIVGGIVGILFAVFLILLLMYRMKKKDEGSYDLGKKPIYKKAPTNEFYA
Described as above.

The target in assay [3] is T1, Flag-tagged SDC4 (human). The assay can be described thus: co-IP; semi-endogenous: HEK293 transfected with Flag-SDC4, uninfected or infected with SeV for 7 h; 0.5% TritonX-100 lysis buffer (50 mM Tris-Cl pH 7.5, 150 mM NaCl, 10% glycerol, 1 mM EDTA); anti-Flag agarose beads 4–6 h at 4 °C.
Assay [4] deals with T2, endogenous SDC4 (UniProt P31431).
T2 sequence: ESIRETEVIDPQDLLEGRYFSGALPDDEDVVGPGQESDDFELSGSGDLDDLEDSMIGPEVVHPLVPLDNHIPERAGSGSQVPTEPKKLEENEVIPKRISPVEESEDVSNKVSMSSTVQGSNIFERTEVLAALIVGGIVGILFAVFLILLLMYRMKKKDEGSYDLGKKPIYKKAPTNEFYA
Nature of the assay: co-IP; endogenous: cells uninfected or infected with SeV; 0.2% TritonX-100 lysis buffer (20 mM Tris-Cl pH 7.5, 100 mM NaCl, 10% glycerol, 10 mM EDTA); anti-SDC4 antibody or control IgG overnight at 4 °C, then proteinA/G agarose beads 2–3 h.

These are yes or no findings as the source states them, for the method shown. Binding seen in cells or lysates may run through a third protein. Some entries that bind do so weakly or less than the wild type. For some of these results: Sequences can lack the tags named with a protein.

B1: RIG-I, transfected, construct not told for the experiment, O95786 1-925 (protein)
chain: MTTEQRRSLQAFQDYIRKTLDPTYILSYMAPWFREEEVQYIQAEKNNKGPMEAATLFLKFLLELQEEGWFRGFLDALDHAGYSGLYEAIESWDFKKIEKLEEYRLLLKRLQPEFKTRIIPTDIISDLSECLINQECEEILQICSTKGMMAGAEKLVECLLRSDKENWPKTLKLALEKERNKFSELWIVEKGIKDVETEDLEDKMETSDIQIFYQEDPECQNLSENSCPPSEVSDTNLYSPFKPRNYQLELALPAMKGKNTIICAPTGCGKTFVSLLICEHHLKKFPQGQKGKVVFFANQIPVYEQQKSVFSKYFERHGYRVTGISGATAENVPVEQIVENNDIIILTPQILVNNLKKGTIPSLSIFTLMIFDECHNTSKQHPYNMIMFNYLDQKLGGSSGPLPQVIGLTASVGVGDAKNTDEALDYICKLCASLDASVIATVKHNLEELEQVVYKPQKFFRKVESRISDKFKYIIAQLMRDTESLAKRICKDLENLSQIQNREFGTQKYEQWIVTVQKACMVFQMPDKDEESRICKALFLYTSHLRKYNDALIISEHARMKDALDYLKDFFSNVRAAGFDEIEQDLTQRFEEKLQELESVSRDPSNENPKLEDLCFILQEEYHLNPETITILFVKTRALVDALKNWIEGNPKLSFLKPGILTGRGKTNQNTGMTLPAQKCILDAFKASGDHNILIATSVADEGIDIAQCNLVILYEYVGNVIKMIQTRGRGRARGSKCFLLTSNAGVIEKEQINMYKEKMMNDSILRLQTWDEAVFREKILHIQTHEKFIRDSQEKPKPVPDKENKKLLCRKCKALACYTADVRVIEECHYTVLGDAFKECFVSRPHPKPKQFSSFEKRAKIFCARQNCSHDWGIHVKYKTFEIPVIKIESFVVEDIATGVQTLYSKWKDFHFEKIPFDPAEMSK
As to B1, the binding entry in assay [1] is reported as “binds”.

B2: HA-tagged full-length RIG-I (protein, UniProt O95786 1-925)
chain: MTTEQRRSLQAFQDYIRKTLDPTYILSYMAPWFREEEVQYIQAEKNNKGPMEAATLFLKFLLELQEEGWFRGFLDALDHAGYSGLYEAIESWDFKKIEKLEEYRLLLKRLQPEFKTRIIPTDIISDLSECLINQECEEILQICSTKGMMAGAEKLVECLLRSDKENWPKTLKLALEKERNKFSELWIVEKGIKDVETEDLEDKMETSDIQIFYQEDPECQNLSENSCPPSEVSDTNLYSPFKPRNYQLELALPAMKGKNTIICAPTGCGKTFVSLLICEHHLKKFPQGQKGKVVFFANQIPVYEQQKSVFSKYFERHGYRVTGISGATAENVPVEQIVENNDIIILTPQILVNNLKKGTIPSLSIFTLMIFDECHNTSKQHPYNMIMFNYLDQKLGGSSGPLPQVIGLTASVGVGDAKNTDEALDYICKLCASLDASVIATVKHNLEELEQVVYKPQKFFRKVESRISDKFKYIIAQLMRDTESLAKRICKDLENLSQIQNREFGTQKYEQWIVTVQKACMVFQMPDKDEESRICKALFLYTSHLRKYNDALIISEHARMKDALDYLKDFFSNVRAAGFDEIEQDLTQRFEEKLQELESVSRDPSNENPKLEDLCFILQEEYHLNPETITILFVKTRALVDALKNWIEGNPKLSFLKPGILTGRGKTNQNTGMTLPAQKCILDAFKASGDHNILIATSVADEGIDIAQCNLVILYEYVGNVIKMIQTRGRGRARGSKCFLLTSNAGVIEKEQINMYKEKMMNDSILRLQTWDEAVFREKILHIQTHEKFIRDSQEKPKPVPDKENKKLLCRKCKALACYTADVRVIEECHYTVLGDAFKECFVSRPHPKPKQFSSFEKRAKIFCARQNCSHDWGIHVKYKTFEIPVIKIESFVVEDIATGVQTLYSKWKDFHFEKIPFDPAEMSK
Regarding B2, the binding entry in assay [2] is reported as “binds”.

B3: endogenous RIG-I (protein, UniProt O95786 1-925)
chain: MTTEQRRSLQAFQDYIRKTLDPTYILSYMAPWFREEEVQYIQAEKNNKGPMEAATLFLKFLLELQEEGWFRGFLDALDHAGYSGLYEAIESWDFKKIEKLEEYRLLLKRLQPEFKTRIIPTDIISDLSECLINQECEEILQICSTKGMMAGAEKLVECLLRSDKENWPKTLKLALEKERNKFSELWIVEKGIKDVETEDLEDKMETSDIQIFYQEDPECQNLSENSCPPSEVSDTNLYSPFKPRNYQLELALPAMKGKNTIICAPTGCGKTFVSLLICEHHLKKFPQGQKGKVVFFANQIPVYEQQKSVFSKYFERHGYRVTGISGATAENVPVEQIVENNDIIILTPQILVNNLKKGTIPSLSIFTLMIFDECHNTSKQHPYNMIMFNYLDQKLGGSSGPLPQVIGLTASVGVGDAKNTDEALDYICKLCASLDASVIATVKHNLEELEQVVYKPQKFFRKVESRISDKFKYIIAQLMRDTESLAKRICKDLENLSQIQNREFGTQKYEQWIVTVQKACMVFQMPDKDEESRICKALFLYTSHLRKYNDALIISEHARMKDALDYLKDFFSNVRAAGFDEIEQDLTQRFEEKLQELESVSRDPSNENPKLEDLCFILQEEYHLNPETITILFVKTRALVDALKNWIEGNPKLSFLKPGILTGRGKTNQNTGMTLPAQKCILDAFKASGDHNILIATSVADEGIDIAQCNLVILYEYVGNVIKMIQTRGRGRARGSKCFLLTSNAGVIEKEQINMYKEKMMNDSILRLQTWDEAVFREKILHIQTHEKFIRDSQEKPKPVPDKENKKLLCRKCKALACYTADVRVIEECHYTVLGDAFKECFVSRPHPKPKQFSSFEKRAKIFCARQNCSHDWGIHVKYKTFEIPVIKIESFVVEDIATGVQTLYSKWKDFHFEKIPFDPAEMSK
As for B3, the binding entry in assay [3] and in assay [4] was “binds” in each case.
